From EP4711384A1 (WIO Bioscience Co., Ltd., dated 2026)

T1: human IL-18RAP ECD-His (human, UniProt O95256 20-356)
T1 sequence: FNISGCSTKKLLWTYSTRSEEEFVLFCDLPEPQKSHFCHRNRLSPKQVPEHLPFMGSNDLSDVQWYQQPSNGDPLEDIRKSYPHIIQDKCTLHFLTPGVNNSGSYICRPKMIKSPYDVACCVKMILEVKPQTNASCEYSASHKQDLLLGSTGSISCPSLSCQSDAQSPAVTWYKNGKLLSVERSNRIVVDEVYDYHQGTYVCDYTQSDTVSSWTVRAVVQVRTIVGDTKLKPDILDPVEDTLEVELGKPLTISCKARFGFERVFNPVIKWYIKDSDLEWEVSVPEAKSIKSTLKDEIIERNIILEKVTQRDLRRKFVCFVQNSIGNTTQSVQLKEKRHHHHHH

T2: human IL-18R1 and IL-18RAP on IL-18 Reporter HEK 293 Cells (human, UniProt Q13478 19-541; O95256 20-599)
T2 sequence (looked up) 1: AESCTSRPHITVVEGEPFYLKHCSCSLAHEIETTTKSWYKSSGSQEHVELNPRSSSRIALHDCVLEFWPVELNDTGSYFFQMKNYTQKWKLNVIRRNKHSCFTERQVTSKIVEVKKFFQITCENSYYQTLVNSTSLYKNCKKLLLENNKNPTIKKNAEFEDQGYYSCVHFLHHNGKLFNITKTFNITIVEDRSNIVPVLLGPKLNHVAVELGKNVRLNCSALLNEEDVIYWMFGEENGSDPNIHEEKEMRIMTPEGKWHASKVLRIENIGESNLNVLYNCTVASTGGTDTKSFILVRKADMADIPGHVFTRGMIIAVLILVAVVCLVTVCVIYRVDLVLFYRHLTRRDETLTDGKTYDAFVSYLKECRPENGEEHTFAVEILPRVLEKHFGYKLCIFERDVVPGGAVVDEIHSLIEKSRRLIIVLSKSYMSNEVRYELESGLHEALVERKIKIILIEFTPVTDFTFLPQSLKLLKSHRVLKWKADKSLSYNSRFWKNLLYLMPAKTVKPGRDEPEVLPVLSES
T2 sequence (looked up) 2: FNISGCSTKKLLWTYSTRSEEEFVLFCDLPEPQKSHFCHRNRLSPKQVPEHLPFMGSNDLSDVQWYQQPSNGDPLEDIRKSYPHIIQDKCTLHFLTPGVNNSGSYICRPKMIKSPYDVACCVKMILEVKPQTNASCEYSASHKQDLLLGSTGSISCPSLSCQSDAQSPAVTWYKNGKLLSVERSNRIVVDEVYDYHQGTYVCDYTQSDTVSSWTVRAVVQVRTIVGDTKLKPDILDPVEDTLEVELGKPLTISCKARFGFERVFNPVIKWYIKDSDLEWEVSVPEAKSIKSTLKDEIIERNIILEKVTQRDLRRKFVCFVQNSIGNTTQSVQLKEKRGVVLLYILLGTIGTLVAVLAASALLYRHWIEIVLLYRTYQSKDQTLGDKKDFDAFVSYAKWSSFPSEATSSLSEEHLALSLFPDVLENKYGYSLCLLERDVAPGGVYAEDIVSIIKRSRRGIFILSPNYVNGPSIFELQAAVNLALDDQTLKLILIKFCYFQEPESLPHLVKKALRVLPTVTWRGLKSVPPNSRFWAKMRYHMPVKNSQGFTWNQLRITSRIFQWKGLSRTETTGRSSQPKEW

T3: human IL-18RAP (full length, on transfected HEK293 cells) (human, UniProt O95256 20-599)
T3 construct: whole, on cells; also called IL-18RAP on the cell membrane surface
T3 sequence (looked up): T2 sequence (looked up) 2

T4: IL-18RAP ECD-mFc (human)
T4 chain: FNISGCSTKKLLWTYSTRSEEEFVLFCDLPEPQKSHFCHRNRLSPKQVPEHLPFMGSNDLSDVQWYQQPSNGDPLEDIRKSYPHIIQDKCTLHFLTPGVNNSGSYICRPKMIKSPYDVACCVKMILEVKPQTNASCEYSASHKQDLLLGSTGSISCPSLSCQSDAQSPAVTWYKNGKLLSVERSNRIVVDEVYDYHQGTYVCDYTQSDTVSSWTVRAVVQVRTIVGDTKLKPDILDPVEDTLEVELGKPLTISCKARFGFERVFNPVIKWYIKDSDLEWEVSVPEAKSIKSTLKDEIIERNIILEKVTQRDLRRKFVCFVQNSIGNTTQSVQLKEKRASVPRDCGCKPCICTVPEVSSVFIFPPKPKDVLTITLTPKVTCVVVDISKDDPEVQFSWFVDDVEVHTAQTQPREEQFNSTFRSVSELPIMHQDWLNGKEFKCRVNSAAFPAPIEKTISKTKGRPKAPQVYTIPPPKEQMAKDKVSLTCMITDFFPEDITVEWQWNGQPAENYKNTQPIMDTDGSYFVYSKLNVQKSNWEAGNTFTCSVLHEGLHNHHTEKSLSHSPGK

B1: hzRap-F11 single-domain antibody fused with human Fc at the C-terminus (Fc fusion)
chain: EVQLVESGGGLVQPGGSLRLSCAASGFTYIPAYMGWFRQAPGKERERVASIKTDASTTYADSVEGRFTISQDNAKNTLYLQMNSLRPEDTAVYYCAAYQFGAFRVWGQGTLVTVSS[human IgG1 Fc with changes not shown]
B2: hzWio-02-09-hFc (bispecific antibody)
chain: EVQLVESGGGLVQPGGSLRLSCAASGSTFDEYDMGWYRQAPGGKCELVSTISTIDASTYYADSVKGRFTISRDNSKNTLYLQMNSLRAEDTAVYYCEADDRGTWDRGGCWGQGTLVTVSSGGGGSEVQLVESGGGLVQPGGSLRLSCAASGFTYIPAYMGWFRQAPGKERERVASIKTDASTTYADSVEGRFTISQDNAKNTLYLQMNSLRPEDTAVYYCAAYQFGAFRVWGQGTLVTVSS[human IgG1 Fc with changes not shown]
notes: also called hzWio-02-09 (Fc form)
B3: hzWio-02-23-hFc (bispecific antibody)
chain: EVQLVESGGGLVQPGGSLRLSCAASGFTVHDMGWYRQAPGKECELVSTISSDASTYYADSVKGRFTISRDNAKNTLYLQMNSLRAEDTAVYYCAADSFTGLQLAECKADFGYWGQGTLVTVSSGGGGSEVQLVESGGGLVQPGGSLRLSCAASGFTYIPAYMGWFRQAPGKERERVASISSTEGSTTYADSVKGRFTISQDNSKNTLYLQMNSLRPEDTAVYYCAAYQFGAFRVWGQGTLVTVSS[human IgG1 Fc with changes not shown]
notes: also called hzWio-02-23 (Fc form); hzWio-02-23-L0-hFc
B4: hzWio-02-03-hFc (bispecific antibody)
chain: EVQLVESGGGLVQPGGSLRLSCAASGNLYRDPCMGWFRQAPGKDREGVAAMNTGADSTFYARSVKGRFTISRDNAKNTLYLQMNSLRAEDTAVYYCAASRYCTERTYTWRYDYDYWGQGTLVTVSSGGGGSEVQLVESGGGLVQPGGSLRLSCAASGFTYIPAYMGWFRQAPGKERERVASIKTDASTTYADSVEGRFTISQDNAKNTLYLQMNSLRPEDTAVYYCAAYQFGAFRVWGQGTLVTVSS[human IgG1 Fc with changes not shown]
notes: also called hzWio-02-03 (Fc form)
B5: hzWio-02-05-hFc (bispecific antibody)
chain: EVQLVESGGGLVQPGGSLRLSCAASGNLYRDPCMGWFRQAPGKDREGVAAMNTGADSTFYARSVKGRFTISRDNAKNTLYLQMNSLRAEDTAVYYCAASRYCTERTYTWRYDYDYWGQGTLVTVSSGGGGSEVQLVESGGGLVQPGGSLRLSCAASGFTYIPAYMGWFRQAPGKERERVASISSTEGSTTYADSVKGRFTISQDNSKNTLYLQMNSLRPEDTAVYYCAAYQFGAFRVWGQGTLVTVSS[human IgG1 Fc with changes not shown]
notes: also called hzWio-02-05 (Fc form)
B6: hzWio-02-01-hFc (bispecific antibody)
chain: EVQLVESGGGLVQPGGSLRLSCAASGTAYDNACMGWFRQAPGKEREGVASIHLRDRTYYADSVKGRFTISRDNSKNTLYLQMNSLRAEDTAVYYCASSNICNALNLQGNTYWGQGTLVTVSSGGGGSEVQLLESGGGLVQPGGSLRLSCAASGYTYGPYCMGWFRQAPGKEREGVAAVGGDARTWYGNSVKGRFTISRDNSKNTLYLQMNSLRAEDTAVYYCAADFDRTVCSDDIYDYTYRGQGTLVTVSS[human IgG1 Fc with changes not shown]
notes: also called hzWio-02-01 (Fc form)
B7: hzWio-02-11-hFc (bispecific antibody)
chain: EVQLVESGGGLVQPGGSLRLSCAASGSTFDEYDMGWYRQAPGGKCELVSTISTIDASTYYADSVKGRFTISRDNSKNTLYLQMNSLRAEDTAVYYCEADDRGTWDRGGCWGQGTLVTVSSGGGGSEVQLVESGGGLVQPGGSLRLSCAASGFTYIPAYMGWFRQAPGKERERVASISSTEGSTTYADSVKGRFTISQDNSKNTLYLQMNSLRPEDTAVYYCAAYQFGAFRVWGQGTLVTVSS[human IgG1 Fc with changes not shown]
notes: also called hzWio-02-11 (Fc form)
B8: hzWio-02-23-L5-hFc (bispecific antibody)
chain: EVQLVESGGGLVQPGGSLRLSCAASGFTVHDMGWYRQAPGKECELVSTISSDASTYYADSVKGRFTISRDNAKNTLYLQMNSLRAEDTAVYYCAADSFTGLQLAECKADFGYWGQGTLVTVSSGGGGSGEVQLVESGGGLVQPGGSLRLSCAASGFTYIPAYMGWFRQAPGKERERVASISSTEGSTTYADSVKGRFTISQDNSKNTLYLQMNSLRPEDTAVYYCAAYQFGAFRVWGQGTLVTVSS[human IgG1 Fc with changes not shown]
notes: also called hzWA23
B9: hzWio-02-23-L7-hFc (bispecific antibody)
chain: EVQLVESGGGLVQPGGSLRLSCAASGFTVHDMGWYRQAPGKECELVSTISSDASTYYADSVKGRFTISRDNAKNTLYLQMNSLRAEDTAVYYCAADSFTGLQLAECKADFGYWGQGTLVTVSSGGSGGGEVQLVESGGGLVQPGGSLRLSCAASGFTYIPAYMGWFRQAPGKERERVASISSTEGSTTYADSVKGRFTISQDNSKNTLYLQMNSLRPEDTAVYYCAAYQFGAFRVWGQGTLVTVSS[human IgG1 Fc with changes not shown]
B10: hzWio-02-23-L6-hFc (bispecific antibody)
chain: EVQLVESGGGLVQPGGSLRLSCAASGFTVHDMGWYRQAPGKECELVSTISSDASTYYADSVKGRFTISRDNAKNTLYLQMNSLRAEDTAVYYCAADSFTGLQLAECKADFGYWGQGTLVTVSSGGGSGGEVQLVESGGGLVQPGGSLRLSCAASGFTYIPAYMGWFRQAPGKERERVASISSTEGSTTYADSVKGRFTISQDNSKNTLYLQMNSLRPEDTAVYYCAAYQFGAFRVWGQGTLVTVSS[human IgG1 Fc with changes not shown]
B11: hzWio-02-23-L8-hFc (bispecific antibody)
chain: EVQLVESGGGLVQPGGSLRLSCAASGFTVHDMGWYRQAPGKECELVSTISSDASTYYADSVKGRFTISRDNAKNTLYLQMNSLRAEDTAVYYCAADSFTGLQLAECKADFGYWGQGTLVTVSSGSGGGGEVQLVESGGGLVQPGGSLRLSCAASGFTYIPAYMGWFRQAPGKERERVASISSTEGSTTYADSVKGRFTISQDNSKNTLYLQMNSLRPEDTAVYYCAAYQFGAFRVWGQGTLVTVSS[human IgG1 Fc with changes not shown]
B12: hzWio-02-23-L10-hFc (bispecific antibody)
chain: EVQLVESGGGLVQPGGSLRLSCAASGFTVHDMGWYRQAPGKECELVSTISSDASTYYADSVKGRFTISRDNAKNTLYLQMNSLRAEDTAVYYCAADSFTGLQLAECKADFGYWGQGTLVTVSSGSGSGGEVQLVESGGGLVQPGGSLRLSCAASGFTYIPAYMGWFRQAPGKERERVASISSTEGSTTYADSVKGRFTISQDNSKNTLYLQMNSLRPEDTAVYYCAAYQFGAFRVWGQGTLVTVSS[human IgG1 Fc with changes not shown]
B13: hzWio-02-23-L9-hFc (bispecific antibody)
chain: EVQLVESGGGLVQPGGSLRLSCAASGFTVHDMGWYRQAPGKECELVSTISSDASTYYADSVKGRFTISRDNAKNTLYLQMNSLRAEDTAVYYCAADSFTGLQLAECKADFGYWGQGTLVTVSSGGSGSGEVQLVESGGGLVQPGGSLRLSCAASGFTYIPAYMGWFRQAPGKERERVASISSTEGSTTYADSVKGRFTISQDNSKNTLYLQMNSLRPEDTAVYYCAAYQFGAFRVWGQGTLVTVSS[human IgG1 Fc with changes not shown]

Target: T1, human IL-18RAP ECD-His
Assay: BLI (Octet), AHC capture, antigen 100 nM

Kd [nM] | koff [s⁻¹] | kon [M⁻¹ s⁻¹] | Binder
4.85 | 0.00116 | 239000 | B1

Target: T2, human IL-18R1 and IL-18RAP on IL-18 …
Assay: cell-based or functional assay

EC50 [ng/mL] | Top630nm | Binder
2.18 | 2.1 | B2
2.2 | 1.55 | B3
1.14 | 2.04 | B4
1.09 | 1.3 | B5
1.42 | 1.46 | B6
0.175 | 1.55 | B7

Target: T2, human IL-18R1 and IL-18RAP on IL-18 …
Assay: cell-based or functional assay
Remark: another data set of the same source

EC50 [ng/mL] | Top630nm | Binder
1.89 | 1.43 | B8
1.86 | 1.35 | B9
1.92 | 1.4 | B10
1.89 | 1.44 | B11
1.82 | 1.48 | B12
1.92 | 1.5 | B13
1.96 | 1.37 | B3

Target: T3, human IL-18RAP (full length, on …)
Assay: flow cytometry, transfected HEK293

binding result | Binder
binds | B2
binds | B3
binds | B4
binds | B5
binds | B6
binds | B7

Target: T4, IL-18RAP ECD-mFc
Assay: sandwich ELISA, IL-18R1 ECD-His coated, IL-18RAP ECD-mFc detection

binding result | Binder
binds | B8
